Reference: article PMC12136788
The other results are listed elsewhere or left out.

T1: UNK ZnF1-6 (called full-length) (human, UniProt Q9C0B0 30-357)
T1 sequence: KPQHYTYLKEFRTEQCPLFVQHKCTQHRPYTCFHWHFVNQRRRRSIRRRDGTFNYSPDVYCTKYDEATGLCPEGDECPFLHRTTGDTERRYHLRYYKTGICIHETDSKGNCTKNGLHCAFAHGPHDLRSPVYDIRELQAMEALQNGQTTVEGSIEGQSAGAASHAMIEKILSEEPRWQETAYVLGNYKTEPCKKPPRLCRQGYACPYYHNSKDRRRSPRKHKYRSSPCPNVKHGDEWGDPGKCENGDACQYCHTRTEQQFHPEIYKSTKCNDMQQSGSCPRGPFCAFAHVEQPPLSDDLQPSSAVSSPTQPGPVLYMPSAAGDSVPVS

B1: chr19:39385628:39385990:-|three_prime_utr|ENSG00000006712|control|control|control (ssRNA)
RNA: GGGAGUUCUACAGUCCGACGAUCGUCCCAGGGCAUUCAGGGCUGGUUCAGACACCAUUAUUGUGAGCAGCAAAGCACUUUUCUAGUGGUCUGUUUGUGAGCCUUUCACUUGUUUGUUCCCCACCCCCAAACCUUUGCUGUUAACAACAGAGGAUUGAGCAUCA
B2: chr5:82277714:82277885:-|CDS|ENSG00000186468|unk|total|mutant (ssRNA)
RNA: GGGAGUUCUACAGUCCGACGAUCAACUAAAAUAUUUAAUUUUCCGGCAAGUGUCGUGGACUUCGUACUGCCCGGAAGCUCCGCCGUCACCGACGAGACCAGAAGUGGCAUGAUAAACAGUAUAAGAAAGCUCAUUUGGGCACACAACAGAGGAUUGAGCAUCA
B3: chr1:28742582:28742694:+|CDS|ENSG00000198492|unk|total|mutant (ssRNA)
RNA: GGGAGUUCUACAGUCCGACGAUCAGCAACGGAGAGCCCCACUUCCUACCAGAUGCAAUGUUUGGGCAACCAGGAGCCCCCGGCCGCACUCCAUUUCUUGGUCAGCAUGGUUUUAAUUUCUUUCCCAGUGGGAUUGACUUCUCACAACAGAGGAUUGAGCAUCA
B4: chr3:52707940:52708050:+|3pUTR|ENSG00000114902|msi1_unk|FALSE|overlapping (ssRNA)
RNA: GGGAGUUCUACAGUCCGACGAUCUUUAGUUCUCUUUAUACUUCAUUUCUAGCCCAGUUGGGUUUUGAUUUAUAUAAGUAGUUUAGACCUUCUCUUCAUAAUCUUGCUCUGAGAUGGGGAACAGAACACACAAGUAUGAAGUUUCAACAGAGGAUUGAGCAUCA
B5: chr12:122341087:122341188:-|CDS|ENSG00000130779|unk|FALSE|bound_elsewhere (ssRNA)
RNA: GGGAGUUCUACAGUCCGACGAUCAGAAUUUGCUGAACUAAAAACACAAAUAGAGAAAAUGAGACUAGAUUACCAACACGAAAUAGAAAAUUUGCAGAAUCAACAAGACUCUGAACGGGCUGCCCAUGCUAAAGAGAUGGAAGCCAACAGAGGAUUGAGCAUCA
B6: chr19:35623844:35623945:+|3pUTR|ENSG00000249115|unk|FALSE|unique (ssRNA)
RNA: GGGAGUUCUACAGUCCGACGAUCUGUGUCAAGAGCAGCGGCGGUGACGCAGGUGUAGAGAUUUGUCAGAGCUCAUGUAGUUGUAGUCUUAAGGCCUGUGCAUUUCACUGCGUGGGUUACUCAAUUUAUAAAGCAAAGCCCUUACAACAGAGGAUUGAGCAUCA
B7: chr15:38485071:38485172:+|3pUTR|ENSG00000171262|unk|FALSE|unique (ssRNA)
RNA: GGGAGUUCUACAGUCCGACGAUCUUGCCUCACCUGUAUUGCUGUGGAUGUGUUUUGUGGGUUUUUCAUUCGAUUUUACAAAAUAGGGAAAGGCACUUCCAGUUGUAUUUAGUAGGCAGUUGUUGUGAAUCAUUUUUUUCUCUUCAACAGAGGAUUGAGCAUCA
B8: chr17:5346795:5346911:+|CDS|ENSG00000029725|unk|FALSE|unique (ssRNA)
RNA: GGGAGUUCUACAGUCCGACGAUCAGAACUGAAUCAUUAUCUGGAAGCUGAGAAAUCUUGUAGGACUGAUCUAGAGAUGUAUGUAGCUGUUUUGAAUACUCAGAAAUCUGUUCUACAGGAAGAUGCUGAGAAACUGCGGAAAGACAACAGAGGAUUGAGCAUCA
B9: chr3:168010103:168010202:-|3pUTR|ENSG00000173905|msi1_unk|total|mutant (ssRNA)
RNA: GGGAGUUCUACAGUCCGACGAUCGCUCAAACAUAAAUCUGCCUACUGAACUCCCGGAUAUUUAAUUACAAAAAUUAAGAACUCCGACUUUUUUAAAACUUUUGUAUCCGAAAUGCGCAUACAUUUAUAUGAAUAUAUUUUGAUCAACAGAGGAUUGAGCAUCA
B10: chr1:10178627:10178729:+|CDS|ENSG00000130939|unk|total|mutant (ssRNA)
RNA: GGGAGUUCUACAGUCCGACGAUCUAAGGAAUUGUUUGAAGAAGUUAUUUCAAAGAUGCGGAAGGCAGGGAUCAAAUCCACAACCGCAACCGAAAAAUUUAAGCUGCUCGCCGAGAAAGUGGAGGAGACCGUGGCCAAGAACGCCAACAGAGGAUUGAGCAUCA
B11: ENSG00000116991:stop:overlap|stop_codon|ENSG00000116991|stop_codon|NA|stop_codon (ssRNA)
RNA: GGGAGUUCUACAGUCCGACGAUCCGACAGCUCAGCUGCGGAAAUUCACAGAAUGGUUUUUCACCACCAUCGACAAAAAAUCUUAGCCAAUCCGCACCUCAUCAAGGGACCACUGGGAAAUGCCCCUUGUCCCUUUGAAGUCACCAACAGAGGAUUGAGCAUCA
B12: ENSG00000136451:be:win_1101|CDS|ENSG00000136451|bound_else_gene|NA|bound_elsewhere_windowed (ssRNA)
RNA: GGGAGUUCUACAGUCCGACGAUCGAGACUGUGGGAAGAAGCUGUUAAAGCAAGGAAGAAAGAAGCUGCUAACCUGUGCCAAACCUCCACGGCUGCUACGACACCUGUGACUCUCACUACUCCAUUCAGUAUAACAUCCUCUGUCAACAGAGGAUUGAGCAUCA
B13: chr3:128622278:128622381:-|CDS|ENSG00000163902|unk|total|mutant (ssRNA)
RNA: GGGAGUUCUACAGUCCGACGAUCAGCCAGGAUGAAGGCCGCCUGCAUCACAGAGCAGGUCUUGACCCUGGUCAACAAGAGAACCGGCCUUUACCGUCACUUUGACGAGACCGUCAACCGGUACAAGCAAUCCCGGGACAUCUCCAACAGAGGAUUGAGCAUCA
B14: chr4:150908776:150908877:-|CDS|ENSG00000198589|msi1|FALSE|bound_elsewhere (ssRNA)
RNA: GGGAGUUCUACAGUCCGACGAUCGUUGAUUUGUACUUAGAUUCUCUUUGUGGCAUACUAUUUAACUGUUUUUAAUUAAUUCUUAGGGUACAUUUAAAUUCAAAGCAGAAAGCGACCUUUUCCUUGCUGAGCAUCACAAACUUUCAACAGAGGAUUGAGCAUCA
B15: chr1:161190761:161190881:-|3pUTR|ENSG00000158859|msi1|FALSE|unique (ssRNA)
RNA: GGGAGUUCUACAGUCCGACGAUCUGCGGGUCACAGGAGGGAGGGGGAAGGCAGGGAGGGCCUGGGCCCCAGUUGUAUUUAUUUAGUAUUUAUUCACUUUUAUUUAGCACCAGGGAAGGGGACAAGGACUAGGGUCCUGGGGAACAACAGAGGAUUGAGCAUCA
B16: chr1:45003092:45003193:-|3pUTR|ENSG00000126107|msi1|FALSE|unique (ssRNA)
RNA: GGGAGUUCUACAGUCCGACGAUCGGAAUCUUCCACAAGCCCAGCACAAGCUGCCAGGCCUGAGCUACUUGAAGGGGGCCAUCUAGGUCCCCAACCCAUGGACUUUGCCUCCAUUUUCAGCUCCGCCUUUUUUCUCCUAUUUUCCAACAGAGGAUUGAGCAUCA
B17: chrX:152990254:152991598:-|CDS|ENSG00000198883|control|control|control (ssRNA)
RNA: GGGAGUUCUACAGUCCGACGAUCAUACAGGGAGGCUUACCCCCAUUAGUGAAACGCAGGCGGCUGUUAGGCAGUGAAAGCACUAGGGGAGAAGACCAUGGCCAGGCCACGUAUCCCAAGGCUGAAAACCAGACUCCAGGCAGGCAACAGAGGAUUGAGCAUCA
B18: chr2:27041412:27041530:+|3pUTR|ENSG00000119777|msi1_unk|total|mutant (ssRNA)
RNA: GGGAGUUCUACAGUCCGACGAUCACUUCAAAAUGCCCAGCCUGCCCCAAAUGCCUCUAAGCCCCUCCCUGUCCCCUCCCUUGCCGUCCUACUUCUUCCAACUUUCCAUUCCCCAUCAUGCUGGGGGUCUUGGUCACAAGGCUCCAACAGAGGAUUGAGCAUCA
B19: chr10:67912576:67912687:+|CDS|ENSG00000096717|unk|total|mutant (ssRNA)
RNA: GGGAGUUCUACAGUCCGACGAUCUUUUGAUGCCGAGCUUCUUGGAGACUGUGAUGUCAUAAUUAAUGAAUUGUGUCACCGGUCCGGUGGUGAAUAUGCCAAACUUUGCUGUAACCCUGUAAAGCUUUCAGAAAUUACUGAAAACAACAGAGGAUUGAGCAUCA
B20: ENSG00000136451:be:win_3101|3pUTR|ENSG00000136451|bound_else_gene|NA|bound_elsewhere_windowed (ssRNA)
RNA: GGGAGUUCUACAGUCCGACGAUCUUCCAUUUAUACCCUACUGUGUCAGUUCAAGCAUCAAAAUACCUUGCAUCUGAGACAGACUUCCUACAUCAGGGACAGGUAUCUGUGUGUCAUUAUACAAAACAGUUCUAGGGGGUUGAACAACAGAGGAUUGAGCAUCA
B21: chr17:75827259:75827360:-|3pUTR|ENSG00000092929|unk|total|mutant (ssRNA)
RNA: GGGAGUUCUACAGUCCGACGAUCGGACAGUUUGGCUGCUGUGUCUGCUGCGCACGCCCCCUCCCCGGACAGCACCUGCCACCCCGAAACUUUCUCCGCAAAAAAAUUAAUAAAAACAAAUCCAUUGUCCUCUUAAAAUAUGCCCAACAGAGGAUUGAGCAUCA
B22: chr14:44928120:44928223:-|3pUTR|ENSG00000179454|unk|FALSE|unique (ssRNA)
RNA: GGGAGUUCUACAGUCCGACGAUCUAGUACAGCAGGCCUCCCAGUGCUGAUGUAAAUAUUUGAGCAGUGUUUAGUACCAUUCUUAGUGCAUAUUAAUUUUUUUAUAUAUCCUUAUAAUUUUAGUUUUUUAAGAUCUUUGCUUUUCAACAGAGGAUUGAGCAUCA

Each binder was assayed against T1, UNK ZnF1-6 (called full-length) (assay: nsRBNS (natural sequence RNA bind-n-seq); RBNS binding buffer (assumed for nsRBNS): 25 mM Tris pH 7.5, 150 mM KCl, 3 mM MgCl2, 0.01% Triton X-100, 500 ug/ml BSA, 20 U/ml SUPERase-In, 4 C; UNK is unkempt and MSI1 is Musashi-1; names of the RNAs are library labels; protein concentration not given here; high values mean tight binding).
B1 gave a binding signal of 0.94 enrichment R.
B2 gave a binding signal of 0.699 enrichment R.
With B3 the binding signal was 0.667 enrichment R.
B4 gave a binding signal of 3.19 enrichment R.
In the case of B5, the binding signal is reported as 8.87 enrichment R.
Binder B6 has a binding signal of 3.16 enrichment R.
In the case of B7, the binding signal is reported as 0.823 enrichment R.
B8 was tested, and the binding signal was 0.722 enrichment R.
B9 was tested, and the binding signal was 3.17 enrichment R.
Work on B10 yielded a binding signal of 0.628 enrichment R.
B11 gave a binding signal of 0.449 enrichment R.
B12 gave a binding signal of 0.886 enrichment R.
For B13, the binding signal was 0.384 enrichment R.
In the case of B14, the binding signal is reported as 3.69 enrichment R.
In the case of B15, the binding signal is reported as 32.9 enrichment R.
Work on B16 yielded a binding signal of 0.645 enrichment R.
B17 was tested, and the binding signal was 1.23 enrichment R.
B18 was tested, and the binding signal was 1.05 enrichment R.
With B19 the binding signal was 0.226 enrichment R.
Binder B20 has a binding signal of 0.463 enrichment R.
Work on B21 yielded a binding signal of 0.989 enrichment R.
B22 was tested, and the binding signal was 213 enrichment R.
